This is one part of the list.
The sequences below were run against T1, OsWOX13 (Oryza sativa, UniProt Q5QMM3 1-267) (assay: protein-binding microarray (RPBM); PBS, 2% BSA, 51.3 ng/ul salmon testes DNA, 50 uM zinc acetate, 200 nM TF, 25 C, 1 h; high values mean tight binding). Settings: protein: recombinant; tags: N-terminal polyhistidine and DsRed monomer fusion (pET32a); label: CyDye5-dUTP incorporated in the synthesized complementary strand; 3' TTTTT single-stranded linker to array surface; dsDNA, one strand shown.
T1 sequence: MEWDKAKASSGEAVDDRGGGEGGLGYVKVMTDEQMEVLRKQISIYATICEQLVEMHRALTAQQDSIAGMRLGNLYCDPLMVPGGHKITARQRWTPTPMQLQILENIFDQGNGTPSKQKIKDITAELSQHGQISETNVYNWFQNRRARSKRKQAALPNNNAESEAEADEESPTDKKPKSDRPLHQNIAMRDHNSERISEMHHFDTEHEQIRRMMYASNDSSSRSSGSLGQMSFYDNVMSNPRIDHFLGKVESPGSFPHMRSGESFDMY
In short: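 Ni–NTA purification followed expression in E. coli BL21-CodonPlus of transcription factors fused N-terminally to a polyhistidine tag and DsRed. At 200 nM in PBS with 2% BSA, salmon testes DNA and 50 µM zinc acetate, the protein was incubated for 1 h at 25 °C with a custom Agilent array that had been primer-extended with Cy5-dUTP and blocked with 2% BSA. After washing, the array was read on an Axon 4000B scanner. The binding signal is per-feature fluorescence intensity in arbitrary units.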
In the case of “CTAATTGAACGGTCAATTCTTACCCATTCATGGTTCGATTCGGAGTCACCTAGTGCAG”, the binding signal is reported as 24100 fluorescence intensity (a.u.).
For “CTAAAATATAATTATGCAAACCTACCTTGGCAATTGAATTCGGAGTCACCTAGTGCAG”, the binding signal was 4390 fluorescence intensity (a.u.).
With “AATATTAGATTGGCTATAGATGAATTGTAGCTAGTAGTTGCGGAGTCACCTAGTGCAG” the binding signal was 54100 fluorescence intensity (a.u.).
For “GATTCCTGAAAATGATTGGATTGCAAATTTAGTACGGTCACGGAGTCACCTAGTGCAG”, the binding signal was 23200 fluorescence intensity (a.u.).
“GCATAAATTACCTCGCGGGCACGGGCATGGGTAGTCACTACGGAGTCACCTAGTGCAG” was tested, and the binding signal was 4000 fluorescence intensity (a.u.).
With “CCTGATCGGATTTGGTTGGCTGGTGCTCTAGATGATGTACCGGAGTCACCTAGTGCAG” the binding signal was 3340 fluorescence intensity (a.u.).
With “CATGATATCCAATCTCATGAAAAGTTTTATTTGAGTCTTTCGGAGTCACCTAGTGCAG” the binding signal was 4810 fluorescence intensity (a.u.).
“TATTTTGTAATCATTTGTTTTATATTTGAATTCCTGTCAGCGGAGTCACCTAGTGCAG” was tested, and the binding signal was 3710 fluorescence intensity (a.u.).
In the case of “AATATCCTGTGATTTGATGGTATTAAGTGAACGATTTATTCGGAGTCACCTAGTGCAG”, the binding signal is reported as 7640 fluorescence intensity (a.u.).
“CCCAATTGGTCCTTTGACCGCCGAACCCCATGGTGTCCCCCGGAGTCACCTAGTGCAG” was tested, and the binding signal was 4060 fluorescence intensity (a.u.).
For “AGTTCCCAAGTCAATCAAATTGAGGGTAAAAGAAATTAAGCGGAGTCACCTAGTGCAG”, the binding signal was 8860 fluorescence intensity (a.u.).
In the case of “AGCCATGCATCAACACGTAATTAAGTACTAGTTGACAGTGCGGAGTCACCTAGTGCAG”, the binding signal is reported as 4190 fluorescence intensity (a.u.).
“GTGAGTGATTGTGTGCTTGTGTACTTGTTTGTTTGTAGTGCGGAGTCACCTAGTGCAG” was tested, and the binding signal was 35000 fluorescence intensity (a.u.).
In the case of “TTTAATATCAGTGACTGATGAAAAGTGGACAATTAAGCGTCGGAGTCACCTAGTGCAG”, the binding signal is reported as 9430 fluorescence intensity (a.u.).
For “GTAATTGAACTACTAAGCTAGTCTGATATAATCGTCAACACGGAGTCACCTAGTGCAG”, the binding signal was 11800 fluorescence intensity (a.u.).
“GGTTAATTTGGAGCGTCACGGGCTAGTTCCGGTCGGGACTCGGAGTCACCTAGTGCAG” was tested, and the binding signal was 16800 fluorescence intensity (a.u.).
With “CCTGAAAATAACTAGATTGAGATGGCTAAAATGACACATGCGGAGTCACCTAGTGCAG” the binding signal was 20200 fluorescence intensity (a.u.).
With “AACTAATTGTATAGATCGCGACTAATTTGCGAGACGAATCCGGAGTCACCTAGTGCAG” the binding signal was 26100 fluorescence intensity (a.u.).
In the case of “GCTAGCTAATTATATAGATAGATTAAAAGAATCTTATAATCGGAGTCACCTAGTGCAG”, the binding signal is reported as 15700 fluorescence intensity (a.u.).
In the case of “GTAATTGGTAGAAGCAGGAGCTGTAGATCACTGACAGGTTCGGAGTCACCTAGTGCAG”, the binding signal is reported as 9860 fluorescence intensity (a.u.).
“GAGTTATGATTTGTTACAATAATTGTAACTTATTGTAAAGCGGAGTCACCTAGTGCAG” was tested, and the binding signal was 27900 fluorescence intensity (a.u.).
With “GCCTAAATTATTGATATTCATATTTTACTATCGCCTATACCGGAGTCACCTAGTGCAG” the binding signal was 32800 fluorescence intensity (a.u.).
In the case of “ATTCCTATCATAAAAGTAATCATGTAAATTCCCCTTGTATCGGAGTCACCTAGTGCAG”, the binding signal is reported as 4440 fluorescence intensity (a.u.).
With “AACGTGCGAATCAACTGTCAATTAATTCTGACATGAACCTCGGAGTCACCTAGTGCAG” the binding signal was 21300 fluorescence intensity (a.u.).
“TGAACTTTTGTCAATTAATGCCAATATTAGCACACGTGGTCGGAGTCACCTAGTGCAG” was tested, and the binding signal was 13800 fluorescence intensity (a.u.).
“TTAATTGCTCTTTAAGAAGAGTATAGATAAATACGAGAGGCGGAGTCACCTAGTGCAG” was tested, and the binding signal was 7660 fluorescence intensity (a.u.).
In the case of “TTTGTCGATTGAATGATAGTTACTCCCTTAGTTATTTTGGCGGAGTCACCTAGTGCAG”, the binding signal is reported as 15100 fluorescence intensity (a.u.).
With “ACTCTAATTTAAATTAAGTTTAAGCTAATACAGACGTCTACGGAGTCACCTAGTGCAG” the binding signal was 35600 fluorescence intensity (a.u.).
For “CTAAACTAAACACAAAACACAGCTTTTGTACCATCGGGGCCGGAGTCACCTAGTGCAG”, the binding signal was 6170 fluorescence intensity (a.u.).
With “GTGATGACAGCTAACTATTACAGATCACAACTAGGACCACCGGAGTCACCTAGTGCAG” the binding signal was 14100 fluorescence intensity (a.u.).
With “AATACAATTAATTACAGTTAATTAAATGATAGAAAGAGTTCGGAGTCACCTAGTGCAG” the binding signal was 55400 fluorescence intensity (a.u.).
In the case of “CTATCGATTATAATTAGTCAGAAGTGAAGTGTTAAACCAACGGAGTCACCTAGTGCAG”, the binding signal is reported as 5520 fluorescence intensity (a.u.).
With “CTATCCTTAATTATGAATGGTTAATTTGGAAGTGCACCTACGGAGTCACCTAGTGCAG” the binding signal was 30300 fluorescence intensity (a.u.).
“AGCTACTCAATCCAATCTAATCTCGAAACAATTTCGATAACGGAGTCACCTAGTGCAG” was tested, and the binding signal was 9160 fluorescence intensity (a.u.).
For “TGGAGATTGGAGTGCGGCCTAGTTCATCTTGGTATCTTATCGGAGTCACCTAGTGCAG”, the binding signal was 9490 fluorescence intensity (a.u.).
“AATAACTAATTGCACATATTGCAACTACTTTGCGAGACGACGGAGTCACCTAGTGCAG” was tested, and the binding signal was 18000 fluorescence intensity (a.u.).
In the case of “GCAGGACTGTTTAGCTAATTAGGTTGCGCCATTTGATACACGGAGTCACCTAGTGCAG”, the binding signal is reported as 8970 fluorescence intensity (a.u.).
With “ACAAAATTTGTATATACATATATAGAAACTTTGTATATGTCGGAGTCACCTAGTGCAG” the binding signal was 9330 fluorescence intensity (a.u.).
“AGAAATTGAGGAGCTCACTCTCCACTCCAGTCCAAAAGGGCGGAGTCACCTAGTGCAG” was tested, and the binding signal was 4270 fluorescence intensity (a.u.).
“CACCATTAATTATTTTGACATACTCTTATATCAAAATAGACGGAGTCACCTAGTGCAG” was tested, and the binding signal was 16100 fluorescence intensity (a.u.).
With “TTAACAAAATTTTGGGTGTAATTTCAAAATTTTAGGACTTCGGAGTCACCTAGTGCAG” the binding signal was 10800 fluorescence intensity (a.u.).
“TATACTATTAAACTTGCTCTAATTGTTTTATGCCAGAGCCCGGAGTCACCTAGTGCAG” was tested, and the binding signal was 4210 fluorescence intensity (a.u.).
For “TACAATTCACCTAATTGGAAATATGCCATTACAATTCTGCCGGAGTCACCTAGTGCAG”, the binding signal was 12000 fluorescence intensity (a.u.).
“GCGTGACTGATCAACGAACCAATCACATTCGTTCTTCTCCCGGAGTCACCTAGTGCAG” was tested, and the binding signal was 24500 fluorescence intensity (a.u.).
With “CCTTGACAGGTAATAGCCCTAATCCAGTTGATATGGGATTCGGAGTCACCTAGTGCAG” the binding signal was 30300 fluorescence intensity (a.u.).
For “CAAATTGAATTTTACTGTTAGAATCCAAGGAAATGATCGTCGGAGTCACCTAGTGCAG”, the binding signal was 24400 fluorescence intensity (a.u.).
“CCAAATTGTTGTTGCCACATCCTTGATCGTATGCTTCTTACGGAGTCACCTAGTGCAG” was tested, and the binding signal was 7590 fluorescence intensity (a.u.).
In the case of “CTTTGTAATTGGAGTCAATCAAATTGAATGATTTCCCTTTCGGAGTCACCTAGTGCAG”, the binding signal is reported as 58900 fluorescence intensity (a.u.).
In the case of “CCCAAACTACACATAATTAGAAATCACCCTCCAAATCACCCGGAGTCACCTAGTGCAG”, the binding signal is reported as 16400 fluorescence intensity (a.u.).
With “AATAATAATTTTGATTTGTTTGCAAGTACTACCAGCTAGCCGGAGTCACCTAGTGCAG” the binding signal was 40100 fluorescence intensity (a.u.).
“AAACATTAATTTGTTTTATAATATATTATAAATGACTATACGGAGTCACCTAGTGCAG” was tested, and the binding signal was 15500 fluorescence intensity (a.u.).
In the case of “GAAATGATTCTGATAAATGGGGAGGTTGGAATGATGCAGCCGGAGTCACCTAGTGCAG”, the binding signal is reported as 4230 fluorescence intensity (a.u.).
For “AATTATGCAACTTTAAATTTGCTATCACCCCAAGTACATCCGGAGTCACCTAGTGCAG”, the binding signal was 3410 fluorescence intensity (a.u.).
With “CACTGATTTTAGGAGTTGAGGGACGCGTCATACAGTCATACGGAGTCACCTAGTGCAG” the binding signal was 4870 fluorescence intensity (a.u.).
